Laboratory results from the supplement of paper PMC9588766.
Where a name gives a salt, the structure may show the parent alone. Whole data set: some 1,900 compounds, median “cell viability of compound + 1 nM pemigatinib relative to pemigatinib-only (DMSO) wells” near 0.95, cut for the lowest 2% near 0.22. This is one part of the list.

What follows are molecules tested on PDC-DUC18828 (assay: cell viability of compound + 1 nM pemigatinib relative to pemigatinib-only (DMSO) wells (fraction); PDC-DUC18828 is a patient-derived cholangiocarcinoma cell line; higher = less growth inhibition). Conditions: first compound 1 µM; pemigatinib concentration 1 nM; 72 h.
Experimental: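 Selleck Bioactive library screen in the patient-derived FGFR2 fusion-positive ICC cell line PDC-DUC18828 (500 cells/well). Each compound was tested at 1 uM with 1 nM pemigatinib, in triplicate, for 72 h. Viability was read by CellTiter-Glo and normalised to plate DMSO controls. Value is the paper's averaged normalised viability.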

| SMILES | cell viability |
| --- | --- |
| CCCCOc1ccc(C(=O)Nc2ccc(F)cc2F)cc1 + CCN1C(=O)N(c2c(F)c(OC)cc(OC)c2F)Cc2cnc3[nH]c(CN4CCOCC4)cc3c21 [pemigatinib] | 0.938 |
| Nc1nc(OCc2cc(Br)cs2)c2[nH]cnc2n1 [Lomeguatrib] + CCN1C(=O)N(c2c(F)c(OC)cc(OC)c2F)Cc2cnc3[nH]c(CN4CCOCC4)cc3c21 [pemigatinib] | 0.956 |
| CC(C)Oc1ccc2c(=O)c(-c3ccccc3)coc2c1 [Ipriflavone (Osteofix)] + CCN1C(=O)N(c2c(F)c(OC)cc(OC)c2F)Cc2cnc3[nH]c(CN4CCOCC4)cc3c21 [pemigatinib] | 0.975 |
| Cc1cc(Nc2cc(N3CCN(C)CC3)nc(Sc3ccc(NC(=O)C4CC4)cc3)n2)n[nH]1 [VX-680 (Tozasertib, MK-0457)] + CCN1C(=O)N(c2c(F)c(OC)cc(OC)c2F)Cc2cnc3[nH]c(CN4CCOCC4)cc3c21 [pemigatinib] | 0.863 |
| Clc1ccc2nsnc2c1NC1=NCCN1 [Tizanidine HCl] + CCN1C(=O)N(c2c(F)c(OC)cc(OC)c2F)Cc2cnc3[nH]c(CN4CCOCC4)cc3c21 [pemigatinib] | 0.95 |
| CCCCOc1cc(C(=O)OCCN(CC)CC)ccc1N [Oxybuprocaine HCl] + CCN1C(=O)N(c2c(F)c(OC)cc(OC)c2F)Cc2cnc3[nH]c(CN4CCOCC4)cc3c21 [pemigatinib] | 0.994 |
| O=C1O[C@H]([C@@H](O)CO)C([O-])=C1O.[Na+] [Sodium ascorbate] + CCN1C(=O)N(c2c(F)c(OC)cc(OC)c2F)Cc2cnc3[nH]c(CN4CCOCC4)cc3c21 [pemigatinib] | 0.952 |
| O=[N+]([O-])c1ccc(Nc2nc(N3CCOCC3)nc(N3CCOCC3)n2)cc1 + CCN1C(=O)N(c2c(F)c(OC)cc(OC)c2F)Cc2cnc3[nH]c(CN4CCOCC4)cc3c21 [pemigatinib] | 0.95 |
| N#C/C(=C1/SC[C@@H](c2ccc(Cl)cc2Cl)S1)n1ccnc1 [Luliconazole] + CCN1C(=O)N(c2c(F)c(OC)cc(OC)c2F)Cc2cnc3[nH]c(CN4CCOCC4)cc3c21 [pemigatinib] | 0.948 |
| CCOC(=O)C1=C(N)Oc2ccc(Br)cc2C1C(C#N)C(=O)OCC (configuration not stated) + CCN1C(=O)N(c2c(F)c(OC)cc(OC)c2F)Cc2cnc3[nH]c(CN4CCOCC4)cc3c21 [pemigatinib] | 1.06 |
| COC(=O)[C@H](Cc1ccccc1)NC(=O)[C@@H](N)CC(=O)O [Aspartame] + CCN1C(=O)N(c2c(F)c(OC)cc(OC)c2F)Cc2cnc3[nH]c(CN4CCOCC4)cc3c21 [pemigatinib] | 1.01 |
| CCS(=O)(=O)c1cccc(-c2cc(C(=O)NC3CCN(C)CC3)c(C)c3[nH]c4ncc(C)cc4c23)c1 + CCN1C(=O)N(c2c(F)c(OC)cc(OC)c2F)Cc2cnc3[nH]c(CN4CCOCC4)cc3c21 [pemigatinib] | 0.296 |
| C=C[C@](C)(O)CC[C@@H]1[C@@]2(C)CCCC(C)(C)[C@@H]2CC[C@@]1(C)O [Sclareol] + CCN1C(=O)N(c2c(F)c(OC)cc(OC)c2F)Cc2cnc3[nH]c(CN4CCOCC4)cc3c21 [pemigatinib] | 1.03 |
| Clc1ccc(C2(c3ccc(-c4cn[nH]c4)cc3)CCNCC2)cc1 + CCN1C(=O)N(c2c(F)c(OC)cc(OC)c2F)Cc2cnc3[nH]c(CN4CCOCC4)cc3c21 [pemigatinib] | 0.938 |
| C[C@]12CC[C@@H]3c4ccc(O)cc4C[C@@H](CCCCCCCCC[S+]([O-])CCCC(F)(F)C(F)(F)F)[C@H]3[C@@H]1CC[C@@H]2O (some centres not stated) [Fulvestrant] + CCN1C(=O)N(c2c(F)c(OC)cc(OC)c2F)Cc2cnc3[nH]c(CN4CCOCC4)cc3c21 [pemigatinib] | 0.919 |
| CNC(=O)[C@@H](NC(=O)[C@H](CC(C)C)[C@H](O)C(=O)NO)C(C)(C)C [Marimastat(BB-2516)] + CCN1C(=O)N(c2c(F)c(OC)cc(OC)c2F)Cc2cnc3[nH]c(CN4CCOCC4)cc3c21 [pemigatinib] | 0.981 |
| CCCOc1ccc(C(=O)OCCN(CC)CC)cc1N [Proparacaine HCl] + CCN1C(=O)N(c2c(F)c(OC)cc(OC)c2F)Cc2cnc3[nH]c(CN4CCOCC4)cc3c21 [pemigatinib] | 0.978 |
| CC(C)C[C@H](NC(=O)CNC(=O)c1cc(Cl)ccc1Cl)B1OC(=O)C(CC(=O)O)(CC(=O)O)O1 + CCN1C(=O)N(c2c(F)c(OC)cc(OC)c2F)Cc2cnc3[nH]c(CN4CCOCC4)cc3c21 [pemigatinib] | 0.0198 |
| CC[C@@H](CO)NCCN[C@@H](CC)CO [Ethambutol HCl] + CCN1C(=O)N(c2c(F)c(OC)cc(OC)c2F)Cc2cnc3[nH]c(CN4CCOCC4)cc3c21 [pemigatinib] | 0.882 |

| SMILES | cell viability |
| --- | --- |
| CCN(CC)CCCCNc1ncc2cc(-c3cc(OC)cc(OC)c3)c(NC(=O)NC(C)(C)C)nc2n1 + CCN1C(=O)N(c2c(F)c(OC)cc(OC)c2F)Cc2cnc3[nH]c(CN4CCOCC4)cc3c21 [pemigatinib] | 0.868 |
| O=C(/C=C/c1ccc(O)c(O)c1)O[C@@H]1C[C@](O)(C(=O)O)C[C@@H](O)[C@H]1O [Chlorogenic Acid] + CCN1C(=O)N(c2c(F)c(OC)cc(OC)c2F)Cc2cnc3[nH]c(CN4CCOCC4)cc3c21 [pemigatinib] | 0.936 |
| C[C@@H]1COC(Nc2ccc3ncnc(Nc4ccc(OCc5nccs5)c(Cl)c4)c3c2)=N1 [Varlitinib] + CCN1C(=O)N(c2c(F)c(OC)cc(OC)c2F)Cc2cnc3[nH]c(CN4CCOCC4)cc3c21 [pemigatinib] | 0.806 |
| N#C/C(=C\c1ccc(O)c(O)c1)C(=O)NCc1ccccc1 [AG-490 (Tyrphostin B42)] + CCN1C(=O)N(c2c(F)c(OC)cc(OC)c2F)Cc2cnc3[nH]c(CN4CCOCC4)cc3c21 [pemigatinib] | 0.948 |
| C#C[C@]1(O)CC[C@H]2[C@@H]3CCC4=CC(=O)CC[C@@H]4[C@H]3CC[C@@]21CC [Levonorgestrel] + CCN1C(=O)N(c2c(F)c(OC)cc(OC)c2F)Cc2cnc3[nH]c(CN4CCOCC4)cc3c21 [pemigatinib] | 1.07 |
| CC(=O)OCC(=O)[C@H]1CC[C@H]2[C@@H]3CCC4=CC(=O)CC[C@]4(C)[C@H]3CC[C@]12C [Deoxycorticosterone acetate] + CCN1C(=O)N(c2c(F)c(OC)cc(OC)c2F)Cc2cnc3[nH]c(CN4CCOCC4)cc3c21 [pemigatinib] | 0.932 |
| Cn1cc(-c2ccc3c(c2)CCN3C(=O)Cc2cccc(C(F)(F)F)c2)c2c(N)ncnc21 + CCN1C(=O)N(c2c(F)c(OC)cc(OC)c2F)Cc2cnc3[nH]c(CN4CCOCC4)cc3c21 [pemigatinib] | 0.948 |
| Oc1cccc(-c2nc(N3CCOCC3)c3oc4ncccc4c3n2)c1 + CCN1C(=O)N(c2c(F)c(OC)cc(OC)c2F)Cc2cnc3[nH]c(CN4CCOCC4)cc3c21 [pemigatinib] | 0.345 |
| CN(C)CC/C=C1/c2ccccc2COc2ccc(CC(=O)O)cc21 [Olopatadine HCl] + CCN1C(=O)N(c2c(F)c(OC)cc(OC)c2F)Cc2cnc3[nH]c(CN4CCOCC4)cc3c21 [pemigatinib] | 0.954 |
| Nc1ncnc2n[nH]c(Nc3ccc(F)cc3)c12 + CCN1C(=O)N(c2c(F)c(OC)cc(OC)c2F)Cc2cnc3[nH]c(CN4CCOCC4)cc3c21 [pemigatinib] | 0.923 |
| CC[C@H](C)C[C@H](C)CCCCCCCCC(=O)N[C@H]1C[C@@H](O)[C@@H](NCCN)NC(=O)[C@@H]2[C@@H](O)CCN2C(=O)[C@H]([C@H](O)CCN)NC(=O)[C@H]([C@H](O)[C@@H](O)c2ccc(O)cc2)NC(=O)[C@@H]2C[C@@H](O)CN2C(=O)[C@H]([C@@H](C)O)NC1=O [Caspofungin Acetate] + CCN1C(=O)N(c2c(F)c(OC)cc(OC)c2F)Cc2cnc3[nH]c(CN4CCOCC4)cc3c21 [pemigatinib] | 0.862 |
| CCn1cc(NC(=S)Nc2cc(Cl)ccc2OC)c(C(N)=O)n1 + CCN1C(=O)N(c2c(F)c(OC)cc(OC)c2F)Cc2cnc3[nH]c(CN4CCOCC4)cc3c21 [pemigatinib] | 0.954 |
| CN(C)Cc1ccc(S(=O)(=O)n2ccc(/C=C/C(=O)NO)c2)cc1 [Resminostat] + CCN1C(=O)N(c2c(F)c(OC)cc(OC)c2F)Cc2cnc3[nH]c(CN4CCOCC4)cc3c21 [pemigatinib] | 0.96 |
| c1ccc(CN(CC2=NCCN2)c2ccccc2)cc1 [Antazoline HCl] + CCN1C(=O)N(c2c(F)c(OC)cc(OC)c2F)Cc2cnc3[nH]c(CN4CCOCC4)cc3c21 [pemigatinib] | 0.993 |
| Cc1cc(OCc2nnc(SC3CCCC3)n2-c2cccnc2)ccc1-c1ccc(S(C)(=O)=O)cc1 + CCN1C(=O)N(c2c(F)c(OC)cc(OC)c2F)Cc2cnc3[nH]c(CN4CCOCC4)cc3c21 [pemigatinib] | 0.792 |
| CNC(=O)c1ccc(C)c(-n2c(C)cc(OCc3ccc(F)cc3F)c(Br)c2=O)c1 + CCN1C(=O)N(c2c(F)c(OC)cc(OC)c2F)Cc2cnc3[nH]c(CN4CCOCC4)cc3c21 [pemigatinib] | 0.997 |
| Cc1ccc(-n2nc(C(C)(C)C)cc2NC(=O)Nc2ccc(OCCN3CCOCC3)c3ccccc23)cc1 [BIRB 796 (Doramapimod)] + CCN1C(=O)N(c2c(F)c(OC)cc(OC)c2F)Cc2cnc3[nH]c(CN4CCOCC4)cc3c21 [pemigatinib] | 1.05 |
| CCCCCCCCCCCC[N+](C)(C)CCOc1ccccc1 [Domiphen Bromide] + CCN1C(=O)N(c2c(F)c(OC)cc(OC)c2F)Cc2cnc3[nH]c(CN4CCOCC4)cc3c21 [pemigatinib] | 0.943 |
